In the supplement of paper PMC6089552:
Among all 3,200 compounds or so, about 300 (9.4%) showed activity. The entries are a selection whose mix differs from that of the whole data set.

Test system: A673/TR/shEF
Assay: cell viability (LOESS-normalised, relative to median of negative controls) (log2 ratio); higher = more viable cells (less compound effect), active = hit call of the paper (over 3 MAD below the median)
Settings: treatment time: 72 h
Summary of the method: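 A673/TR/shEF Ewing sarcoma cells (1,500 per well, 384-well plates) were grown with or without doxycycline to induce EWS-FLI1 shRNA knockdown, starting 24 h before compounds. Library compounds at two or more concentrations, with DMSO controls, were added for three days. Cell viability was read by CellTiter-Glo luminescence on an Envision reader, then LOESS-corrected per plate, divided by the median of negative controls and log2-transformed. Hits were wells at least three median absolute deviations from the median of all screened wells.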

[1] = 0.25 µM, library screen: screen1, EWS-FLI1 expression: high (no doxycycline)
[2] = 0.25 µM, library screen: screen1, EWS-FLI1 expression: low (doxycycline-induced shRNA knockdown)
[3] = 2.5 µM, library screen: screen1, EWS-FLI1 expression: high (no doxycycline)
[4] = 2.5 µM, library screen: screen1, EWS-FLI1 expression: low (doxycycline-induced shRNA knockdown)
[5] = 0.103 µM, library screen: screen3, EWS-FLI1 expression: high (no doxycycline)
[6] = 0.103 µM, library screen: screen3, EWS-FLI1 expression: low (doxycycline-induced shRNA knockdown)
[7] = 0.308 µM, library screen: screen3, EWS-FLI1 expression: high (no doxycycline)
[8] = 0.308 µM, library screen: screen3, EWS-FLI1 expression: low (doxycycline-induced shRNA knockdown)
[9] = 0.926 µM, library screen: screen3, EWS-FLI1 expression: high (no doxycycline)
[10] = 0.926 µM, library screen: screen3, EWS-FLI1 expression: low (doxycycline-induced shRNA knockdown)
[11] = 2.8 µM, library screen: screen3, EWS-FLI1 expression: high (no doxycycline)
[12] = 2.8 µM, library screen: screen3, EWS-FLI1 expression: low (doxycycline-induced shRNA knockdown)
[13] = 8.3 µM, library screen: screen3, EWS-FLI1 expression: high (no doxycycline)
[14] = 8.3 µM, library screen: screen3, EWS-FLI1 expression: low (doxycycline-induced shRNA knockdown)
[15] = 25 µM, library screen: screen3, EWS-FLI1 expression: high (no doxycycline)
[16] = 25 µM, library screen: screen3, EWS-FLI1 expression: low (doxycycline-induced shRNA knockdown)
[17] = 0.25 µM, library screen: screen2, EWS-FLI1 expression: high (no doxycycline)
[18] = 0.25 µM, library screen: screen2, EWS-FLI1 expression: low (doxycycline-induced shRNA knockdown)
[19] = 2.5 µM, library screen: screen2, EWS-FLI1 expression: high (no doxycycline)
[20] = 2.5 µM, library screen: screen2, EWS-FLI1 expression: low (doxycycline-induced shRNA knockdown)

Measured: cell viability (log2)

COC(=O)[C@@H](N)CS
inactive: [1] 0.101 | [2] 0.145 | [3] 0.175 | [4] 0.25

Cc1cn([C@H]2C[C@H](N=[N+]=[N-])[C@@H](CO)O2)c(=O)[nH]c1=O
active: [1] -0.142 | [3] -1.07 | [4] -0.798

Cc1c(NC(=O)OC[C@@H]2COCCN2)cn2ncnc(Nc3ccc4c(cnn4Cc4cccc(F)c4)c3)c12
inactive: [5] 0.0336 | [6] 0.0451 | [7] -0.0266 | [8] 0.00787 | [9] -0.0039 | [10] 0.096 | [11] 0.0301 | [12] 0.0282 | [13] -0.00249 | [14] 0.0357 | [15] 0.0034 | [16] -0.0539

CCCCCCOC(=O)/N=C(/N)c1ccc(NCc2nc3cc(C(=O)N(CCC(=O)OCC)c4ccccn4)ccc3n2C)cc1
active: [15] -0.441

CC(C[N+](C)(C)C)OC(N)=O (stereo not given)
inactive: [5] 0.057 | [6] 0.109 | [1] 0.0686 | [2] 0.0454 | [17] 0.239 | [18] 0.148 | [7] 0.102 | [8] 0.149 | [9] 0.0923 | [10] 0.122 | [3] 0.144 | [4] 0.101 | [19] 0.158 | [20] 0.103 | [11] 0.117 | [12] 0.0588 | [13] 0.0626 | [14] 0.0961 | [15] 0.17 | [16] 0.09

NCC(=O)CCC(=O)O
inactive: [5] 0.0878 | [6] 0.0931 | [1] 0.0472 | [2] 0.0573 | [7] 0.0223 | [8] 0.00305 | [9] 0.0307 | [10] 0.0277 | [3] 0.0883 | [4] -0.128 | [11] -0.0213 | [12] 0.0259 | [13] 0.00995 | [14] 0.0734 | [15] -0.00962 | [16] 0.017

NC(=O)c1ccc[n+]([C@@H]2O[C@H](COP(=O)([O-])OP(=O)(O)OC[C@H]3O[C@@H](n4cnc5c(N)ncnc54)[C@H](O)[C@@H]3O)[C@@H](O)[C@H]2O)c1
inactive: [1] 0.115 | [2] 0.054 | [3] 0.157 | [4] 0.00843

Oc1ccc(C2CNCc3sccc32)cc1O (stereo not given)
inactive: [17] 0.169 | [18] 0.0314 | [19] 0.167 | [20] 0.0867

COc1ccc(CN(CCN(C)C)c2ncccn2)cc1
inactive: [1] 0.0875 | [2] 0.088 | [3] 0.119 | [4] 0.139

N=C(N)SCCc1ccc(CCSC(=N)N)cc1
inactive: [17] 0.11 | [18] 0.0349 | [19] 0.176 | [20] 0.078

COc1c2ccoc2cc2oc(C)cc(=O)c12
inactive: [1] 0.0282 | [2] 0.0455 | [3] 0.0257 | [4] -0.0152

C1CCN2C[C@H]3C[C@H](CN4CCCC[C@@H]34)[C@H]2C1
inactive: [1] 0.0574 | [2] 0.016 | [3] 0.142 | [4] 0.0171

Cc1ccc(C)c(OCCCC(C)(C)C(=O)O)c1
inactive: [5] 0.159 | [6] -0.0254 | [1] 0.0797 | [2] 0.0418 | [7] 0.0792 | [8] 0.066 | [9] 0.0799 | [10] 0.0486 | [3] 0.187 | [4] 0.0489 | [11] 0.0969 | [12] 0.0664 | [13] 0.0304 | [14] 0.0281 | [15] 0.106 | [16] 0.0901

O=c1[nH]c2cc(Cl)ccc2c(O)c1-c1cccc(Oc2ccccc2)c1
inactive: [17] 0.13 | [18] 0.0448 | [19] 0.0586 | [20] 0.0631

C=CCN1CCc2c(cc(O)c(O)c2Cl)C(c2ccccc2)C1 (stereo not given)
inactive: [17] 0.21 | [18] 0.0813 | [19] 0.254 | [20] 0.104

O=C(O)C[C@H](O)C[C@H](O)/C=C/c1c(C2CC2)nc2ccccc2c1-c1ccc(F)cc1
active: [9] -0.533 | [10] -0.345 | [11] -1.53 | [12] -0.986 | [13] -2.09 | [14] -1.25 | [15] -3.51 | [16] -3.56

COC(=O)c1c(C)c2c(c(C)c1O)OC(=O)c1c(C)c(Cl)c(O)c(Cl)c1O2
inactive: [1] 0.0528 | [2] 0.162 | [3] 0.116 | [4] 0.202

COc1cc2c(cc1OC)[C@@H]1Cc3ccc(OC)c(OC)c3CN1CC2
inactive: [1] 0.0651 | [2] -0.0137 | [3] 0.157 | [4] 0.151

O=C(CCCN1CCC(O)(c2ccc(Cl)cc2)CC1)c1ccc(F)cc1
inactive: [5] 0.03 | [6] 0.0457 | [1] 0.135 | [2] 0.162 | [17] 0.115 | [18] 0.105 | [7] 0.167 | [8] 0.116 | [9] 0.112 | [10] 0.0484 | [3] 0.201 | [4] 0.278 | [19] 0.142 | [20] -0.00685 | [11] 0.0784 | [12] 0.164 | [13] 0.0699 | [14] 0.0466 | [15] 0.0922 | [16] 0.166

COc1ccc2c(c1)c(CC(=O)O)c(C)n2Cc1ccc(Cl)cc1
inactive: [17] 0.107 | [18] 0.126 | [19] 0.0273 | [20] 0.0728

CC1(C)[C@@H](O)CC[C@]2(C)[C@H]3C(=O)C=C4[C@@H]5C[C@@](C)(C(=O)O)CC[C@]5(C)CC[C@@]4(C)[C@]3(C)CC[C@@H]12
inactive: [1] 0.0754 | [2] 0.0366 | [3] 0.0468 | [4] 0.088

COc1ccccc1CN1CCN(Cc2ccc(OC)c(OC)c2OC)CC1
inactive: [1] 0.0684 | [2] 0.104 | [3] 0.0567 | [4] 0.0723

COc1ccc(-c2coc3cc(O)ccc3c2=O)c(O)c1O
inactive: [1] 0.0601 | [2] 0.0374 | [3] 0.0945 | [4] 0.0557

COc1c(C)c2c(c(O)c1C/C=C(\C)CCC(=O)OCCN1CCOCC1)C(=O)OC2
inactive: [5] 0.051 | [6] 0.0315 | [7] 0.00041 | [8] 0.00916 | [9] -0.00635 | [10] 0.0426 | [11] 0.0529 | [12] 0.0135 | [13] -0.0785 | [14] 0.0651
active: [15] -0.48 | [16] -0.33

NCCS
inactive: [1] 0.133 | [2] 0.0651 | [17] 0.14 | [18] 0.0819 | [3] 0.116 | [4] -0.00976 | [19] 0.0277 | [20] -0.00818

COCCOC(=O)C1=C(C)NC(C)=C(C(=O)OC(C)C)C1c1cccc([N+](=O)[O-])c1 (stereo not given)
inactive: [5] 0.0776 | [6] 0.103 | [1] 0.153 | [2] 0.0144 | [17] 0.0652 | [18] 0.00869 | [7] 0.0674 | [8] 0.136 | [9] 0.0964 | [10] 0.0994 | [3] 0.126 | [4] 0.0808 | [19] 0.108 | [20] 0.089 | [11] 0.0078 | [12] 0.123 | [13] 0.0775 | [14] 0.0884 | [15] 0.0276 | [16] 0.0391

CC(=O)N(O)CCCCCNC(=O)CCC(=O)N(O)CCCCCNC(=O)CCC(=O)N(O)CCCCCN
inactive: [1] 0.101 | [2] 0.183 | [3] 0.148 | [4] 0.155

O=S(=O)(c1cccc2cnccc12)N1CCNCC1
inactive: [17] 0.166 | [18] 0.045 | [19] 0.145 | [20] 0.0254

NC(Cc1cccc(-c2ccccc2CP(=O)(O)O)c1)C(=O)O (stereo not given)
inactive: [17] 0.125 | [18] 0.14 | [19] 0.201 | [20] 0.103

CC(=O)OC1CC[C@@]2(C)C(CC[C@H]3[C@@H]4CC=C(C(C)=O)[C@@]4(C)C(=O)C[C@@H]32)C1 (stereo not given in full)
inactive: [1] 0.0289 | [2] 0.0314 | [3] 0.141 | [4] 0.0915

O=C1Cc2cc(CCN3CCN(c4nsc5ccccc45)CC3)c(Cl)cc2N1
inactive: [5] 0.0465 | [6] 0.129 | [7] 0.0555 | [8] 0.0344 | [9] 0.013 | [10] 0.0779 | [11] 0.0748 | [12] 0.0861 | [13] 0.0519 | [14] 0.0624 | [15] 0.0773 | [16] 0.0566

CCN[C@H]1C[C@H](C)S(=O)(=O)c2sc(S(N)(=O)=O)cc21
inactive: [5] 0.00676 | [6] 0.0565 | [7] -0.00803 | [8] 0.0636 | [9] -0.00657 | [10] 0.0451 | [11] -0.0163 | [12] 0.0246 | [13] 0.00351 | [14] 0.0537 | [15] -0.0107 | [16] 0.0326

CCOC(=O)[C@]12CC1/C(=N\O)c1ccccc1O2 (stereo not given in full)
inactive: [17] 0.145 | [18] 0.13 | [19] 0.0916 | [20] 0.0113
